Reference: PubChem BioAssay AID1159614 (National Center for Advancing Translational Sciences (NCATS), 2016)
Screen size: about 45,000 compounds; about 65 (0.1%) were called active. Calls come from the whole dose curve; as a rule, active = well fitted activation curve with a large enough effect; inconclusive = small, poorly fitted or top-dose-only effect; inactive = no such curve, though single readings can be large or run the other way. The list shows a part of the results.

biological target: Galactocerebrosidase (Homo sapiens) (UniProt P54803); experiment: A Novel Cell-Based Assay to Identify Small Molecules for B -Galactocerebrosidase; conditions: 145M-Twi-hGALC-G270D cells (Twitcher mouse brain line with human GALC G270D), HMU-beta-Gal fluorescence, 48 h; series mostly up to 57.5 µM; activation: at the top concentration; note: 0% is about no effect; nearly all actives have a fitted effect of over 65% in size
Chain of UniProt P54803 (P54803 whole entry, looked up): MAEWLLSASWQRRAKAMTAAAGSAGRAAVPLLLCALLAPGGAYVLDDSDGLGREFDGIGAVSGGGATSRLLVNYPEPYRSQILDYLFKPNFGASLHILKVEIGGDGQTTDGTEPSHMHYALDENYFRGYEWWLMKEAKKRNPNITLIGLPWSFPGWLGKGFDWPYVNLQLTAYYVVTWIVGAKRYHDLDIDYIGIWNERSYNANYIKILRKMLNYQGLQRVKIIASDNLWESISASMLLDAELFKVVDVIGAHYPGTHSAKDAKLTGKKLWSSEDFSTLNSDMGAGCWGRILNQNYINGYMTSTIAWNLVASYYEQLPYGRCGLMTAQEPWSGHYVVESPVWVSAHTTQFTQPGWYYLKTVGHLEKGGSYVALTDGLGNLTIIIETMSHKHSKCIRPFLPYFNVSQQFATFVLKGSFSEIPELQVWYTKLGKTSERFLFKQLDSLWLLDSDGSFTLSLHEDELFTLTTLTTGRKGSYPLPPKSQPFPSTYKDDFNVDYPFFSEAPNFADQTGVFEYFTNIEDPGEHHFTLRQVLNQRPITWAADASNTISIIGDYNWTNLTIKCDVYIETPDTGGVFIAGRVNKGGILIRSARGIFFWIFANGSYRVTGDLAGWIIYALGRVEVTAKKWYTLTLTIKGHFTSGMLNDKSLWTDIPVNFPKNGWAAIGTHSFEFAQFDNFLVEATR
Outline: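 Mutant human GALC (G270D), stably expressed in a Twitcher mouse brain cell line lacking endogenous GALC, is measured in live-treated cells via 6-hexadecanoylamino-4-methylumbelliferyl-β-galactoside hydrolysis (0.1 mM final, pH 5.2) with fluorescent detection.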

activation, inactive:
Cc1ccc(NC(=O)CSc2nccn2C2CCCC2)cc1Cl -3.65%
Cc1cccc(C(C)C)c1NC(=O)c1ccc2c(c1)CCCN2S(C)(=O)=O -9.88%
CCCn1cc(S(=O)(=O)c2cccc(Cl)c2)c(=O)c2cc(F)c(N3CCCC3)cc21 -7.43%
Cc1cc(Cl)ccc1OCC(=O)N(Cc1ccc(N(C)C)cc1)C1CCS(=O)(=O)C1 (configuration not stated) -22%
CCc1cc(=O)[nH]c(SCc2nc(-c3ccc(C(F)(F)F)cc3)no2)n1 -3.49%
COc1ccc(N2CCN(C(c3ccc(F)cc3)c3sc4nc(-c5ccco5)nn4c3O)CC2)cc1 (configuration not stated) -3.63%
Cc1ccc(OCC(=O)Nc2nonc2-c2ccc(Br)cc2)cc1 -18.9%
CC(=O)N1CCCC1c1nc2ccccc2n1Cc1ccccc1F (configuration not stated) 6.52%
CCC(C)NC(=O)c1cnn(-c2cccc(F)c2)c1-n1cccc1 (configuration not stated) 2.43%
CCN1CCN(C(c2ccc(F)cc2)c2sc3nc(-c4ccco4)nn3c2O)CC1 (configuration not stated) -34.5%
Cc1ccc(S(=O)(=O)N(CC(=O)NCCSc2ccc(Cl)cc2)c2cccc(Cl)c2)cc1 -14.5%
Cc1ccc(S(=O)(=O)CCC(=O)N2CCN(c3nc4c(C)c(C)ccc4s3)CC2)cc1 -46%
CCCC(=O)Nc1ccc2nc(SCC(=O)N3CCOCC3)sc2c1 -8.84%
CC(C)OCCCNC(=O)CN1C(=O)c2ccccc2Sc2ncccc21 -10.6%
O=C(Nc1cccc2c1CCCC2)N1CCOc2ccc(Cl)cc21 2.02%
N#C/C(=C\c1ccc(-c2cccc(Cl)c2)o1)C(=O)Nc1cccc(C(F)(F)F)c1 14.8%
Cc1oc2ncnc(N3CCOCC3)c2c1C(=O)NCc1ccc(Cl)cc1 -10.6%
Fc1ccc(N2CCN(c3ncnc4[nH]ncc34)CC2)cc1 -21.3%
CC(C)c1cc(-c2nc(-c3cccc(Cl)c3)no2)n[nH]1 -17.6%
CCOc1ccc(CNC(=O)CSc2c3c(nc4ccc(Cl)cc24)CCCC3)cc1 -8.62%
COc1ccc(C)c2sc(N3CCN(C(=O)c4ccco4)CC3)nc12 2.11%
COc1ccccc1N1CCN(c2cc(C)nc3nncn23)CC1 11.8%
Cc1ccc(CNC(=O)Cn2c3ncccc3c(=O)n2-c2ccc(C)cc2)cc1 -18%
Cc1nc2c(c(C)nn2C(C)(C)C)c(C)c1CCC(=O)Nc1ccc(F)cc1 -4.97%
Cc1ccc2oc(C(=O)Nc3sc4c(c3C(=O)NCc3ccco3)CCC4)cc(=O)c2c1 -11.9%
Cc1nn2c(=O)cc(COC(=O)c3ccc(NC(=O)COc4ccccc4F)cc3)nc2s1 -13.4%
Cn1c(C(=O)NCc2cccc(Cl)c2)cc2oc3ccccc3c21 -12.6%
CC(=O)c1ccc(N2CCN(C(=O)CCCn3c(=O)[nH]c4ccsc4c3=O)CC2)cc1 -16.8%
COc1ccccc1CCNC(=O)C1CCN(c2nnc(C)c3c(C)n(-c4ccc(C)cc4)nc23)CC1 -3.12%
Cc1ccc(Cn2c(CN3CCN(c4cccc(Cl)c4)CC3)nc3c2c(=O)n(C)c(=O)n3C)cc1 -24.7%
O=[N+]([O-])c1ccc(O)c(-c2ccnc3cc(-c4ccccc4)nn23)c1 -5.58%
COCCCNC(=O)c1ccc(Cn2c(=O)c3cccn3c3cccnc32)cc1 -34.1%
Cc1nn(CC(=O)NCc2ccc(N(C)C)cc2)c(=O)c2nn(-c3ccccc3)c(C)c12 -16%
CC(C)CC(=O)OCc1cc(=O)n2nc(C3CCCCC3)sc2n1 -6.59%
COc1ccccc1CNC(=O)C1CCN(c2nnc(C)c3c(C)n(-c4ccccc4)nc23)CC1 -2.82%
Cc1ccc2c(=O)cc(C(=O)Nc3c(C(=O)c4ccc(F)cc4)oc4ccccc34)oc2c1C -5.05%
CSc1nn(CC(=O)Nc2cc(C)ccc2C)c(N)c1S(=O)(=O)c1ccccc1 1.41%
O=C(Nc1nnc(S(=O)(=O)N2CCCCCC2)s1)c1ccc(Cl)cc1 -9.95%
COc1ccc(NC(=O)CC(C)S(=O)(=O)c2cc3c(cc2C)NC(=O)CO3)cc1OC (configuration not stated) -4.15%
COc1ccc(Nc2c(-c3ccsc3)nc3nc(C)cc(C)n23)cc1 -15.2%
COc1ccc(CCNC(=O)c2c(C)oc3ncn(CC(C)C)c(=O)c23)c(OC)c1 -11.8%
Cc1ccc(NC(=O)CN2C(=O)CC(c3ccc(C)c(C)c3)=Nc3ccccc32)cc1 -11.8%
CCOC(=O)Cn1c(=O)oc2cc(S(=O)(=O)N3CCN(c4ccc(F)cc4)CC3)ccc21 -0.0016%
Cc1cccc(C)c1OC(=O)CSc1nnc(-c2ccc3c(c2)OCO3)o1 3.98%
CCC(CC)C(=O)Nc1cc(-c2nc3cccnc3s2)ccc1C -8.57%
CCCOc1cccc(C(=O)Nc2cccc(NC(=O)c3ccc(Cl)cc3Cl)c2)c1 -8.6%
Cc1ccc(C(C)C)c(OCC(=O)Nc2ccc(O)c(-c3nc4cc(Cl)ccc4o3)c2)c1 -12.4%
COC(=O)c1c(C)sc(-c2c(-c3ccc(OC)c(F)c3)[nH]c3c2c(=O)n(C)c(=O)n3C)c1O -9.87%
CCSc1nc2ccccc2c(OCc2cc(C(=O)OC)ccc2OC)c1C(=O)OC 5%
CC(C)C(=O)Nc1nnc(S(=O)(=O)N2c3ccccc3CC2C)s1 (configuration not stated) -9.46%
COc1ccc(CNC(=O)CN(C)S(=O)(=O)c2ccc3c(c2)c(=O)n(C)c(=O)n3C)cc1 -4.66%
COc1cccc(C(c2sc3nc(-c4ccco4)nn3c2O)N2CCN(C)CC2)c1 (configuration not stated) -11%
COc1ccc(C(=O)Oc2cc(-c3ccc(OC)c(OC)c3)cc(=O)c3c(C)oc(C)c23)cc1 -19.8%
CCS(=O)(=O)Nc1ccc(-c2cn3c(C)csc3n2)cc1 -24.8%
CCOC(=O)c1c(-c2ccccc2)oc2ccc(OCc3cccc(Br)c3)cc12 -13.6%
CCN1C(=O)c2ccccc2S(=O)c2ccc(C(=O)NCc3ccc(Cl)cc3)cc21 (configuration not stated) -8.29%
CCN(c1cccc(C)c1)S(=O)(=O)c1c(C)nc2sc(C)cn2c1=O -13.7%
O=C1CCSC2(C(=O)N(Cc3ccc(F)cc3)c3ccccc32)N1c1cccc(F)c1 (configuration not stated) -1.52%
O=C(Cn1cc(C(=O)c2cccs2)c2ccccc21)Nc1ccc(Br)cc1 -33.3%
CCS(=O)(=O)c1nc(S(=O)(=O)c2ccc(C)cc2)c(NC)s1 -18.9%
Cc1cccc(C(=O)N2CCc3cc(CNS(=O)(=O)c4ccc(F)c(Cl)c4)ccc32)c1 -3.07%
CCc1ccccc1NC(=O)Cn1ccn(Cc2ccccc2)c(=O)c1=O -3.2%
